Test results: PMC4336329 (PLoS ONE, 2015)
About 14,000 (4.5%) of roughly 310,000 compounds showed an effect of 50% or more. Effects have a minus sign here. This is one part of the list.

Target: human ether-à-go-go-related gene (hERG) potassium channel (human, UniProt Q12809)
Assay: primary screen, population patch clamp on CHO cells stably expressing hERG
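Note: peak tail current of the secondary pulse compared with the same well before compound.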

Sequence of human ether-à-go-go-related gene (hERG) potassium channel (Q12809 whole entry, looked up): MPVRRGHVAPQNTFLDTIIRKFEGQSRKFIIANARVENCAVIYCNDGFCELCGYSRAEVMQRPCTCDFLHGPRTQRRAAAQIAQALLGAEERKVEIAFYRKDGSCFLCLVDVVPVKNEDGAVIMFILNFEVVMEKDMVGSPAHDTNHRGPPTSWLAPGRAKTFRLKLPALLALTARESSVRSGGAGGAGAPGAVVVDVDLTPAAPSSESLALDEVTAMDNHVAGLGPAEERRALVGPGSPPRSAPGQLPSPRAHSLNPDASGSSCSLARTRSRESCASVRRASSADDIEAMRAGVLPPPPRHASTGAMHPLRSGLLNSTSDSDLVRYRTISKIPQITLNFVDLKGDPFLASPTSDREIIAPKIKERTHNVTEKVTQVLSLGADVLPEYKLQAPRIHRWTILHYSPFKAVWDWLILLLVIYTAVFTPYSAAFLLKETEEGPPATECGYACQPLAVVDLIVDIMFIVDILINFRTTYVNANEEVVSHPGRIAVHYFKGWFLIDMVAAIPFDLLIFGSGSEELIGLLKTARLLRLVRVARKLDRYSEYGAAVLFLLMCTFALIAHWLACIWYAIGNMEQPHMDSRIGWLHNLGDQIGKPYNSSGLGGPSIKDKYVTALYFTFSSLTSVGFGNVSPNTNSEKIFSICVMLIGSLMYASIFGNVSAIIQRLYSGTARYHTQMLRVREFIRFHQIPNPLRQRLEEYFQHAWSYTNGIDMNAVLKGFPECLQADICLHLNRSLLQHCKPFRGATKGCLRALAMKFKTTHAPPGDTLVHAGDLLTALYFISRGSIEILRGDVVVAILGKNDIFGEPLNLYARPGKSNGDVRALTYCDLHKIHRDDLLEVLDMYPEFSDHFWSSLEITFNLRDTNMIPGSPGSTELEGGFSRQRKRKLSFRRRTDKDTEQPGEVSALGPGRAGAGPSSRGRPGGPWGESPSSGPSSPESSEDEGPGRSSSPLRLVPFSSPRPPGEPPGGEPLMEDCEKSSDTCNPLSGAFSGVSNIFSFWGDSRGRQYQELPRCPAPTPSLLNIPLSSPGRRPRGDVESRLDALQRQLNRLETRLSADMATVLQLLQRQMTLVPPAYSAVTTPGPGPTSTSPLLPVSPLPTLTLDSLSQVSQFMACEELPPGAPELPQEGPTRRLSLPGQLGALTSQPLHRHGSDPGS

SMILES | hERG current change (%, negative = inhibition) at 10uM [%]
CCOC(=O)COc1ccc2c(=O)c(-c3ccccc3OC)coc2c1 | 5.1
COc1ccc(Cl)cc1C(=O)Nc1ccc(S(=O)(=O)N2CCCC2)cc1 | 27.6
COc1ccc(C(=O)C[n+]2ccc(N)c(C)c2C)cc1.[Br-] | 14.9
Cc1ccccc1-c1nc(CN2CCC(C(=O)NC3CC3)CC2)c(C)o1 | -33
Cc1ccc(S(=O)(=O)N(c2nc(N(C)C)nc(N(C)C)n2)n2cnnc2)cc1 | 20.4
COc1cc(CCCN2C(=O)C(=O)NC[C@H]2Cc2cccc3ccccc23)cc(OC)c1OC | -19.6
O=C(Nc1ccccc1Cl)NC1(C(=O)NCC2CCCO2)CCCCC1 (stereo not drawn) | 18.8
O=C1/C(=C\c2ccc(-c3ccccc3[N+](=O)[O-])o2)C(c2ccccc2)=NN1c1ccccc1 | 6.53
CCOc1ccc(S(=O)(=O)n2ccc(C)n2)cc1 | 10.9
Cc1oc2c(c(=O)c1C)C(=O)CC(c1ccccc1)C2 (stereo not drawn) | -23.7
CCCCN1CNC(=S)N(c2ccccc2OCC)C1 | 8.18
CC(C)CC1NC(=O)N(CCCCN2C(=O)c3ccccc3C2=O)C1=O (stereo not drawn) | -2.07
COC(=O)C(Sc1nc(C)cc(C)c1C#N)c1ccccc1 (stereo not drawn) | -10.6
CCN1CCN(C(=O)CS(=O)(=O)Cc2nc(-c3ccccc3C)oc2C)CC1 | -0.141
COc1cc(/C=N/NC(=O)C(NC(=O)c2ccccc2)c2n[nH]c(=O)c3ccccc23)ccc1OCC(N)=O (stereo not drawn) | 5.88
COc1ccccc1-n1cnnc1SCc1csc(-c2ccccc2)n1 | -20.9
Cc1cccc(C)c1OCC(=O)Nn1c(C)nc2ccccc2c1=O | -25
O=C(/C=C/c1ccccc1)NC(=S)Nc1ccc(CN2CCOCC2)cc1 | -18.9
COCCCN1CN(S(=O)(=O)c2cccs2)c2nc3ccccc3nc21 | -23.7
Cc1cccc2sc(NC(=O)CN(C)S(=O)(=O)c3ccc(Br)s3)nc12 | -2.49
O=C(Nc1ccc(NC(=O)c2ccccc2Cl)nc1)c1ccncc1 | -10.3
O=C(c1cccc(F)c1)N1CCN(c2cccc(C(F)(F)F)c2)CC1 | -18.7
O=C(NC(=S)NC1CCCC1)c1ccccc1 | 3.8

SMILES | hERG current change (%, negative = inhibition) at 10uM [%]
COc1cc(CO)cc(Br)c1OCC(=O)O | 24.9
FC(F)(F)C(Oc1nc(Nc2ccc(Cl)cc2)nc(N2CCOCC2)n1)C(F)(F)F | 12.9
CCOC(=O)N1CCN(c2ccc(Cl)c(Cl)c2)CC1 | -11.1
COc1ccccc1NC(=S)NCc1ccccc1 | 8.62
O=C(NNC(=O)C1COc2ccccc2O1)c1cccc([N+](=O)[O-])c1 (stereo not drawn) | -7.35
COc1ccccc1N(CC(=O)NCCSCc1ccccc1)S(C)(=O)=O | 4.03
O=[N+]([O-])c1ccc2c(c1)C(O)n1ncnc1S2 (stereo not drawn) | 26.6
O=[N+]([O-])c1cccc(-c2c(-c3ccccc3)ncc3cc(F)ccc23)c1 | 0.428
Cc1n[nH]c(C)c1CCC(=O)N/N=C/C=C/c1ccccc1 | -23.2
COc1ccc2c(C=O)cn(C)c2c1 | 16.7
CCN(CC)C(=O)CSc1nc2ccccc2c(=O)[nH]1 | 12.5
COc1cccc(CC2(CO)CCCN(Cc3cc(F)ccc3-n3cccn3)C2)c1 (stereo not drawn) | -77.3
Cc1ccccc1NS(=O)(=O)c1ccc(C(=O)NCC(C)(C)N2CCOCC2)cc1 | -1.84
C=C1CCC(N(O)c2cc(C)on2)C(=C)CCC2C1CC2(C)C (stereo not drawn) | 8.82
COc1ccc(CCNC(=O)Cn2nnc(-c3ccc(OC)c(OC)c3)n2)cc1OC | 3.58
COc1cc(CN2CCNC(=O)C2CC(=O)N(C)Cc2cccnc2)cc(OC)c1 (stereo not drawn) | 12.7
COc1ccc(N2CCN(c3nc(C)c(C)c(=O)[nH]3)CC2)cc1 | 9.18
OC(COc1ccc(CN2CCCCO2)cc1)CN1CCCCC1 (stereo not drawn) | 10.8
O=C(NCc1ccco1)Nc1ccc([N+](=O)[O-])cc1 | -9.2
Cc1nc(C)c(CC(=O)N/N=C/c2ccc(O)cc2)c(=O)[nH]1 | 14.6
CCOC(=O)CSc1nc(N(C)C)nc(N(C)C#N)n1 | -10
COc1ccc2oc(C)c(NC(C)=O)c2c1 | 0.461
